These results are taken from the supplement of paper PMC4604168 (melanoma cell lines).

SMILES strings stand for the structures. The list shows a part of the results. Many values rest on one well or one pass, so single values are uncertain.

Some test systems named below: A101D; A2058; A375.
What all share (experiment): cell count relative to DMSO control; melanoma cells; higher = more viable cells
What all share (settings): library dose: standard library concentration; 72 h
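Note: cells treated in 1,536-well plates, then fixed and DAPI-stained, with nuclei counted from automated high-throughput microscope images.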

Consider `Nc1ncn([C@H]2C[C@H](O)[C@@H](CO)O2)c(=O)n1` [decitabine] + CC(C)(C)c1cnc(CSc2cnc(NC(=O)C3CCNCC3)s2)o1 [SNS-032] (first compound 0.5 µM, partner dose 0.05 µM), for which the cell count in the assay with A101D stood at 68.3%; with A2058, 56.5%; in the assay on A375, 77.8%.

Take `Nc1ccn([C@@H]2O[C@H](CO)[C@@H](O)C2(F)F)c(=O)n1` [gemcitabine] + C=CCn1c(=O)c2cnc(Nc3ccc(N4CCN(C)CC4)cc3)nc2n1-c1cccc(C(C)(C)O)n1 [MK1775] (first compound 0.002 µM, partner dose 0.1 µM): the cell count with A101D amounted to 52%; in the assay with A2058 it was 20.2%; in the assay on A375, 62.4%.

In the case of `CC(=O)O[C@@]12CO[C@@H]1C[C@H](O)[C@@]1(C)C(=O)[C@H](O)C3=C(C)[C@@H](OC(=O)[C@H](O)[C@@H](NC(=O)OC(C)(C)C)c4ccccc4)C[C@@](O)([C@@H](OC(=O)c4ccccc4)[C@H]21)C3(C)C` [Docetaxel] + Cc1cc(N2CCOCC2)cc2[nH]c(-c3c(NC[C@@H](O)c4cccc(Cl)c4)cc[nH]c3=O)nc12 [BMS536924] (first compound 0.0005 µM, partner dose 1 µM), the cell count with A101D came to 61.2%; in the assay with A2058, 8.84%; with A375, 75.4%.

On to `Nc1nc(F)nc2c1ncn2[C@@H]1O[C@H](CO)[C@@H](O)[C@@H]1O` [fludarabine] + NC(=O)Nc1cc(-c2cccc(F)c2)sc1C(=O)N[C@H]1CCCNC1 [AZD7762] (first compound 1 µM, partner dose 0.1 µM), for which the cell count was determined as 45.3% in the assay on A101D, 51.2% in the assay with A2058 and 33.4% in the assay with A375.

As for `CC(=O)O[C@@]12CO[C@@H]1C[C@H](O)[C@@]1(C)C(=O)[C@H](O)C3=C(C)[C@@H](OC(=O)[C@H](O)[C@@H](NC(=O)OC(C)(C)C)c4ccccc4)C[C@@](O)([C@@H](OC(=O)c4ccccc4)[C@H]21)C3(C)C` [Docetaxel] + CO[C@H]1C[C@@H]2CC[C@@H](C)[C@@](O)(O2)C(=O)C(=O)N2CCCC[C@H]2C(=O)O[C@H]([C@H](C)C[C@@H]2CC[C@@H](OCCO)[C@H](OC)C2)CC(=O)[C@H](C)/C=C(\C)[C@@H](O)[C@@H](OC)C(=O)[C@H](C)C[C@H](C)/C=C/C=C/C=C/1C [everolimus] (first compound 0.0005 µM, partner dose 0.1 µM), the cell count in the assay with A101D came to 53.8%; with A2058, 5.03%; with A375, 61.1%.

Take `Nc1ncn([C@H]2C[C@H](O)[C@@H](CO)O2)c(=O)n1` [decitabine] + O=C(Nc1cccc(Cl)c1)Nc1ncc(CCNc2ncnc3ccsc23)s1 [SNS314] (first compound 0.5 µM, partner dose 0.004 µM): the cell count in the assay with A101D stood at 79.7%; with A2058, 64.9%; in the assay on A375, 89.3%.

With `CO[C@H]1C[C@@H]2CC[C@@H](C)[C@@](O)(O2)C(=O)C(=O)N2CCCC[C@H]2C(=O)O[C@H]([C@H](C)C[C@@H]2CC[C@@H](OCCO)[C@H](OC)C2)CC(=O)[C@H](C)/C=C(\C)[C@@H](O)[C@@H](OC)C(=O)[C@H](C)C[C@H](C)/C=C/C=C/C=C/1C` [everolimus] + COc1ccc(Cl)c(Nc2nc3ccccc3nc2NS(=O)(=O)c2cccc(NC(=O)C(C)(C)N)c2)c1 [XL147] (first compound 0.1 µM, partner dose 4 µM), the cell count in the assay on A101D was determined as 78.1%; in the assay with A2058 it was 57.2%; in the assay with A375 it was 106%.

Regarding `Nc1ccn([C@@H]2O[C@H](CO)[C@@H](O)C2(F)F)c(=O)n1` [gemcitabine] + CN(C)S(=O)(=O)c1ccc2c(c1)/C(=C/c1cc3c([nH]1)CCCC3)C(=O)N2 [SU6656] (first compound 0.002 µM, partner dose 2 µM), the cell count came out at 67.9% in the assay on A101D, 44.4% in the assay with A2058 and 149% in the assay on A375.

For the molecule `Nc1ccn([C@@H]2O[C@H](CO)[C@@H](O)C2(F)F)c(=O)n1` [gemcitabine] + CO[C@@H]1[C@H](N(C)C(=O)c2ccccc2)C[C@H]2O[C@]1(C)n1c3ccccc3c3c4c(c5c6ccccc6n2c5c31)C(=O)NC4 [Midostaurin] (first compound 0.002 µM, partner dose 0.4 µM), the cell count in the assay with A101D came out at 68.7%; in the assay with A2058, 46.1%; in the assay with A375, 70.5%.

`Nc1ncn([C@H]2C[C@H](O)[C@@H](CO)O2)c(=O)n1` [decitabine] + COc1ccc(COc2ccc(Cc3cnc(N)nc3N)cc2OC)cc1 [GW2580] (first compound 0.5 µM, partner dose 5 µM): the cell count with A101D was 76.8%; in the assay on A2058 it was 69.5%; in the assay with A375 it was 112%.

Consider `Nc1nc(F)nc2c1ncn2[C@@H]1O[C@H](CO)[C@@H](O)[C@@H]1O` [fludarabine] + COc1cc(Nc2ncc(F)c(Nc3ccc4c(n3)NC(=O)C(C)(C)O4)n2)cc(OC)c1OC [Tamatinib] (first compound 1 µM, partner dose 2 µM), for which the cell count was 32.1% with A101D, 84.9% with A2058 and 34.6% in the assay with A375.

As for `CC(=O)O[C@@]12CO[C@@H]1C[C@H](O)[C@@]1(C)C(=O)[C@H](O)C3=C(C)[C@@H](OC(=O)[C@H](O)[C@@H](NC(=O)OC(C)(C)C)c4ccccc4)C[C@@](O)([C@@H](OC(=O)c4ccccc4)[C@H]21)C3(C)C` [Docetaxel] + C=CCn1c(=O)c2cnc(Nc3ccc(N4CCN(C)CC4)cc3)nc2n1-c1cccc(C(C)(C)O)n1 [MK1775] (first compound 0.0005 µM, partner dose 0.1 µM), the cell count in the assay on A101D stood at 49.6%; with A2058, 7.91%; in the assay with A375 it was 63.5%.

For `CC(=O)c1c(C)c2cnc(Nc3ccc(N4CCNCC4)cn3)nc2n(C2CCCC2)c1=O` [palbociclib] + CN(C)S(=O)(=O)c1ccc2c(c1)/C(=C/c1cc3c([nH]1)CCCC3)C(=O)N2 [SU6656] (first compound 0.2 µM, partner dose 2 µM), the cell count is 67.3% in the assay on A101D, 98% with A2058 and 68% in the assay on A375.

Regarding `CO[C@H]1C[C@@H]2CC[C@@H](C)[C@@](O)(O2)C(=O)C(=O)N2CCCC[C@H]2C(=O)O[C@H]([C@H](C)C[C@@H]2CC[C@@H](OCCO)[C@H](OC)C2)CC(=O)[C@H](C)/C=C(\C)[C@@H](O)[C@@H](OC)C(=O)[C@H](C)C[C@H](C)/C=C/C=C/C=C/1C` [everolimus] + Cc1ccc(NC(=O)c2cccc(N(C)C)c2)cc1NC(=O)c1ccc(O)cc1 [ZM336372] (first compound 0.1 µM, partner dose 10 µM), the results for the cell count in the assay on A101D, in the assay with A2058 and in the assay with A375 were 116%, 98.8% and 87.1%, respectively.

In the case of `CC(=O)c1c(C)c2cnc(Nc3ccc(N4CCNCC4)cn3)nc2n(C2CCCC2)c1=O` [palbociclib] + COc1ccc(Cl)c(Nc2nc3ccccc3nc2NS(=O)(=O)c2cccc(NC(=O)C(C)(C)N)c2)c1 [XL147] (first compound 0.2 µM, partner dose 4 µM), the cell count with A101D was found to be 59.5%; in the assay with A2058 it was 86%; in the assay with A375 it was 68.5%.

Turning to `Nc1nc(F)nc2c1ncn2[C@@H]1O[C@H](CO)[C@@H](O)[C@@H]1O` [fludarabine] + COc1ccc(Cl)c(Nc2nc3ccccc3nc2NS(=O)(=O)c2cccc(NC(=O)C(C)(C)N)c2)c1 [XL147] (first compound 1 µM, partner dose 4 µM), the cell count in the assay on A101D was 82.8%; in the assay with A2058, 73.4%; with A375 it was 43.2%.

For `CC(=O)c1c(C)c2cnc(Nc3ccc(N4CCNCC4)cn3)nc2n(C2CCCC2)c1=O` [palbociclib] + OCc1c[nH]c2ccccc12 [Indole-3-carbinol] (first compound 0.2 µM, partner dose 4 µM), the cell count in the assay with A101D is 86.1%; with A2058, 114%; in the assay on A375 it was 75.4%.

With `CC(=O)O[C@@]12CO[C@@H]1C[C@H](O)[C@@]1(C)C(=O)[C@H](O)C3=C(C)[C@@H](OC(=O)[C@H](O)[C@@H](NC(=O)OC(C)(C)C)c4ccccc4)C[C@@](O)([C@@H](OC(=O)c4ccccc4)[C@H]21)C3(C)C` [Docetaxel] + CS(=O)(=O)CCNCc1ccc(-c2ccc3ncnc(Nc4ccc(OCc5cccc(F)c5)c(Cl)c4)c3c2)o1 [lapatinib] (first compound 0.0005 µM, partner dose 4 µM), the cell count in the assay with A101D is 45.9%; in the assay with A2058, 11.5%; in the assay with A375 it was 77.8%.

`Nc1nc(F)nc2c1ncn2[C@@H]1O[C@H](CO)[C@@H](O)[C@@H]1O` [fludarabine] + O=C(O)c1ccc(-c2c[nH]c3ncc(-c4ccccc4)cc23)cc1C1CCCC1 [GSK650394] (first compound 1 µM, partner dose 0.8 µM): the cell count in the assay with A101D was determined as 82%; in the assay on A2058 it was 71.6%; with A375, 49.1%.

For `Nc1ccn([C@@H]2O[C@H](CO)[C@@H](O)C2(F)F)c(=O)n1` [gemcitabine] + COc1cc(Nc2ncc(F)c(Nc3ccc4c(n3)NC(=O)C(C)(C)O4)n2)cc(OC)c1OC [Tamatinib] (first compound 0.002 µM, partner dose 2 µM), the cell count with A101D is 16.8%; in the assay on A2058 it was 65.6%; in the assay with A375 it was 95%.

Consider `Nc1ccn([C@@H]2O[C@H](CO)[C@@H](O)C2(F)F)c(=O)n1` [gemcitabine] + O=C(Nc1ccccc1)c1cc([N+](=O)[O-])ccc1Cl [GW9662] (first compound 0.002 µM, partner dose 10 µM), for which the cell count in the assay with A101D is 70.3%; with A2058 it was 81.8%; with A375 it was 139%.
